# Reference: PubChem BioAssay AID208 (DTP/NCI, 2004)
# Results filed as inconclusive are left out. For part of its entries the source gives two or more results. This is not the full list of results. The source may hold further records. Values that stand side by side are repeats in other runs, samples, wells, individuals or studies.
# System: HT29 intrarenal xenograft, nude mice, tumor weight change
# Test: NCI In Vivo Anticancer Drug Screen. Data for tumor model HT29;CX-1 Human Adenocarcinoma (MER+) (intrarenal inoculation) in NU/NU BALB/C (nude) mice
# Conditions: endpoint: mean tumor weight change, higher = larger tumour
# Description: The antitumor activity of compounds was measured in mice bearing transplantable tumors. Survival or tumor size were measured and the results are expressed as the measurement made in the treated group (T) divided by the measurement made in the vehicle treated control group (C). The tumor model used in this assay is HT29;CX-1 Human Adenocarcinoma (MER+) (intrarenal inoculation) in NU/NU BALB/C (nude) mice
# [1] = dose: 150.0 mg/kg/injection, schedule: Q04DX004 (ip), vehicle: Klucel (hydroxypropylcellulose) (HPC)
compound,measurement,setting,value
Cc1nnc2ncccn12,T/C,"dose: 50.0 mg/kg/injection, schedule: Q04DX004 (sc), vehicle: saline",72 % of control and 104 % of control
CN(C)/N=N/c1nc[nH]c1C(N)=O,T/C,"dose: 100.0 mg/kg/injection, schedule: Q04DX004 (ip), vehicle: Klucel (hydroxypropylcellulose) (HPC)",96 % of control and 167 % of control
same,T/C,[1],64 % of control and 104 % of control
same,T/C,"dose: 225.0 mg/kg/injection, schedule: Q04DX004 (ip), vehicle: Klucel (hydroxypropylcellulose) (HPC)",77 % of control and 109 % of control
O=P(O)(NCCCl)NCCCl,T/C,"dose: 18.75 mg/kg/injection, schedule: Q04DX004 (sc), vehicle: saline",52 % of control and 108 % of control
C[n+]1c(-c2cccc3ccccc23)c2cc(N)ccc2c2ccccc21,T/C,"dose: 24.0 mg/kg/injection, schedule: Q04DX004 (sc), vehicle: saline",71 % of control and 151 % of control
CCC1=C[C@H]2CN(CCc3c([nH]c4ccccc34)[C@@](C(=O)OC)(c3cc4c(cc3OC)N(C)[C@H]3[C@@](O)(C(=O)NC)[C@H](OC(C)=O)[C@]5(CC)C=CCN6CC[C@]43[C@@H]65)C2)C1,T/C,"dose: 1.0 mg/kg/injection, schedule: Q04DX004 (sc), vehicle: water",12 % of control and 48 % of control
O=c1[nH]c(=O)n([C@H]2CCCO2)cc1F,T/C,"dose: 355.9 mg/kg/injection, schedule: Q04DX004 (ip), vehicle: Klucel (hydroxypropylcellulose) (HPC)",39 % of control and 66 % of control
CCC1OCC(C(Cl)CCl)O1 (configuration not stated),T/C,"dose: 177.0 mg/kg/injection, schedule: Q01DX014 (sc), vehicle: Klucel (hydroxypropylcellulose) (HPC)","79 % of control, 107 % of control, 121 % of control"
same,T/C,"dose: 267.0 mg/kg/injection, schedule: Q01DX014 (sc), vehicle: Klucel (hydroxypropylcellulose) (HPC)","51 % of control, 68 % of control, 83 % of control"
same,T/C,"dose: 400.0 mg/kg/injection, schedule: Q01DX014 (sc), vehicle: Klucel (hydroxypropylcellulose) (HPC)","18 % of control, 35 % of control, 67 % of control"
same,T/C,"dose: 600.0 mg/kg/injection, schedule: Q01DX014 (sc), vehicle: Klucel (hydroxypropylcellulose) (HPC)",-8 % of control and 72 % of control
CC[C@@]1(O)C(=O)OCc2c1cc1n(c2=O)Cc2cc3ccccc3nc2-1,T/C,"dose: 8.0 mg/kg/injection, schedule: Q04DX004 (sc), vehicle: saline with Tween-80",-57 % of control and 70 % of control
same,T/C,"dose: 16.0 mg/kg/injection, schedule: Q04DX004 (sc), vehicle: saline with Tween-80",-78 % of control and 31 % of control
O=P1(N(CCCl)CCCl)NCCCO1 (configuration not stated),T/C,"dose: 25.0 mg/kg/injection, schedule: Q04DX004 (ip), vehicle: saline",61 % of control and 163 % of control
same,T/C,"dose: 40.0 mg/kg/injection, schedule: Q04DX004 (ip), vehicle: saline","61 % of control, 71 % of control, 88 % of control"
same,T/C,"dose: 50.0 mg/kg/injection, schedule: Q04DX004 (ip), vehicle: saline",33 % of control and 87 % of control
same,T/C,"dose: 90.0 mg/kg/injection, schedule: Q04DX004 (ip), vehicle: saline","43 % of control, 63 % of control, 86 % of control"
same,T/C,"dose: 100.0 mg/kg/injection, schedule: Q04DX004 (ip), vehicle: saline",6 % of control and 108 % of control
same,T/C,"dose: 200.0 mg/kg/injection, schedule: Q04DX004 (ip), vehicle: saline",-93 % of control and 37 % of control
CC(=O)OC(C)C1C2=C(C(=O)CC1(C)O)C(=O)c1c(ccc(-c3ccc4c(c3O)C(=O)C3=C(C4=O)C(C(C)OC(C)=O)C(C)(O)CC3=O)c1O)C2=O (configuration not stated),T/C,"dose: 15.0 mg/kg/injection, schedule: Q04DX004 (ip), vehicle: saline with Tween-80",82 % of control and 113 % of control
COc1cccc2c1C(=O)c1c(O)c3c(c(O)c1C2=O)CC(O)(C(=O)CO)CC3OC1CC(N)C(O)C(C)O1 (configuration not stated),T/C,"dose: 150.0 mg/kg/injection, schedule: Q04DX004 (sc), vehicle: water",43 % of control and 73 % of control
CO[C@H](/C(C)=C/C=C/C(C)=C/c1coc(C)n1)[C@H](C)[C@H]1C[C@@H](O)[C@@]2(C)O[C@H]2/C=C/[C@@H](C)[C@@H]2C[C@@H](CC(=O)O2)C[C@H]2O[C@@H]2C(=O)O1,T/C,"dose: 0.25 mg/kg/injection, schedule: Q04DX004 (sc), vehicle: Klucel (hydroxypropylcellulose) (HPC)",36 % of control and 118 % of control
same,T/C,"dose: 0.5 mg/kg/injection, schedule: Q04DX004 (sc), vehicle: Klucel (hydroxypropylcellulose) (HPC)",5 % of control and 116 % of control
Oc1c(Cl)cc(Cl)cc1C=NCCSc1ccc(Cl)cc1,T/C,[1],28 % of control and 159 % of control
same,T/C,"dose: 300.0 mg/kg/injection, schedule: Q04DX004 (ip), vehicle: Klucel (hydroxypropylcellulose) (HPC)",71 % of control and 163 % of control
CC1(C)OCC2OC=CC(=O)C2O1 (configuration not stated),T/C,"dose: 300.0 mg/kg/injection, schedule: Q04DX004 (sc), vehicle: saline with Tween-80",77 % of control and 119 % of control
